{
  "source": "patent US20170239239A1",
  "about": "“Method for Inducing a Sustained Immune Response” (Immune Therapeutics Inc., priority 2016, published 2017)",
  "key": {"[1]": {"tested_on": "ovarian cancer cells", "test": "Ovarian cancer cells treated with different dosing regimens of naltrexone", "assay_type": "cell-based", "conditions": "water control", "protocol": "They also prevent the adhesion of cancer cells to bone marrow stromal cells and thereby inhibit the enhanced secretion of migratory factors, such as interleukin (IL)-6, TNF-α, and vascular endothelial growth factor. In research experiments, ovarian cancer cells were treated with either water as the control or different dosing regimens of naltrexone to replicate high dose versus Immediate release dosing of naltrexone."}, "[2]": {"tested_on": "stomach cancer", "test": "Case report, stage 3 stomach cancer", "assay_type": "in vivo, human", "excerpt": "person diagnosed with stage 3-stomach cancer prognosis 6 months to live on Mar. […] 28, 2007. In addition to Immediate release naltrexone patients received chemotherapy and kidney stents inserted."}, "[3]": {"tested_on": "Hepatitis C", "test": "Case reports, Hepatitis C", "assay_type": "in vivo, human", "excerpt": "In May 2010, it had dropped down to 11.400."}, "[4]": {"tested_on": "Crohn's disease", "test": "Open study of 4.5 mg naltrexone/day in active Crohn's disease, 17 patients", "assay_type": "in vivo, human", "protocol": "Infliximab was not allowed for a minimum of 8 weeks prior to study initiation. Other therapy for Crohn's disease that was at a stable dose for 4 weeks prior to enrollment was continued at the same doses. Patients completed the inflammatory bowel disease questionnaire (IBDQ) and the short-form (SF-36) quality of life surveys and CDAI scores were assessed pretreatment, every 4 weeks on therapy and 4 weeks after completion of the study drug. Drug was administered by mouth each evening for a 12-week period. RESULTS: Seventeen patients with a mean CDAI score of 356+/−27 were enrolled."}, "[5]": {"tested_on": "diabetic neuropathy", "test": "Case report, diabetic neuropathy", "assay_type": "in vivo, human", "excerpt": "person, diagnosed with diabetic neuropathy for the last six years was prescribed one or two tablets every four to six hours as needed for pain. Patient takes between 4 to 8 tablets a day."}, "[6]": {"tested_on": "fibromyalgia", "test": "Randomized, double blind, placebo-controlled crossover study in 31 women with fibromyalgia", "assay_type": "in vivo, human", "excerpt": "Thirty-one women with fibromyalgia participated in the randomized, double blind, placebo-controlled, and counterbalanced, crossover study. […] An intensive longitudinal design was used to measure daily levels of pain."}, "[7]": {"tested_on": "Hashimoto's", "test": "Case reports, Hashimoto's thyroiditis", "protocol": "Patient was taking L-thyroxine and pain medications and 75 mg Zoloft.\nPatients was taking Synthroid 150 mcg, Compounded T3 25 mcg, Progesterone 150 mg, Plus lots of supplements like Magnesium, D3, Methyl B12, Methyl folate, Selenium, E, Amino Restore, CLA, NAC, DE, Adaptacin."}, "[8]": {"tested_on": "myasthenia gravis", "test": "Case report, myasthenia gravis", "assay_type": "in vivo, human", "conditions": "person four"}, "[9]": {"tested_on": "multiple sclerosis (MS)", "test": "Double-masked placebo-controlled crossover study of quality of life in MS, 80 subjects", "assay_type": "in vivo, human", "excerpt": "RESULTS: Eighty subjects with clinically definite MS were enrolled, and 60 subjects completed the trial. Ten withdrew before completing the first trial period: 8 for personal reasons, 1 for a non-MS-related adverse event, and 1 for perceived benefit. Database management errors occurred in 4 other subjects, and quality of life surveys were incomplete in 6 subjects for unknown reasons. […] LDN was associated with significant improvement on the following mental health quality of life measures: a 3.3-point improvement on the Mental Component Summary score of the Short Form-36 General Health Survey (p=0.04), a 6-point improvement on the Mental Health Inventory (p<0.01), a 1.6-point improvement on the Pain Effects Scale (p=0.04), and a 2.4-point improvement on the Perceived Deficits Questionnaire (p=0.05). […] Further studies with LDN in MS are warranted."}, "[10]": {"tested_on": "fibromyalgia", "test": "Open label single center study in 25 fibromyalgia patients", "assay_type": "in vivo, human"}, "[11]": {"tested_on": "fibromyalgia", "test": "Case report, Fibromyalgia and Epstein Barr", "assay_type": "in vivo, human", "conditions": "person; 0.5 mg increased to 3 mg", "excerpt": "A person was diagnosed in 1998 Fibromyalgia and Epstein Barr, had to quit work, in pain and very depressed. Various treatments over the years for pain prescribed and other problems with the disease."}, "[12]": {"tested_on": "asymptomatic HIV+ adults", "conditions": "3 mg compounded, with ART, cited from earlier work"}, "[13]": {"tested_on": "adenocarcinoma of the pancreas with metastases to the liver", "conditions": "person, cited from earlier work"}, "[14]": {"tested_on": "CDK Inhibitors p15, p18, p19, and p27", "test": "Expression of CDK inhibitors"}, "[15]": {"tested_on": "A549 (lung) and HCT116 (CRC)", "test": "Continuous 48 h exposure to naltrexone, lung and CRC cells"}},
  "note": "Like-named read-outs stand apart in the source and are kept apart here.",
  "data": [
    {"molecule": "O=C1CC[C@@]2(O)[C@H]3Cc4ccc(O)c5c4[C@@]2(CCN3CC2CC2)[C@H]1O5", "note": "[Immediate release naltrexone, naltrexone]", "values": [
      {"measurement": "growth of cancer cells", "setting": "[1]; Immediate release low or short-term dosing", "value": "slowed"},
      {"measurement": "growth of cancer cells", "setting": "[1]; high dose of naltrexone", "value": "stimulated and grew faster"},
      {"measurement": "disease status", "setting": "[2]; December of 2007", "value": "in remission and stable"},
      {"measurement": "CT scan", "setting": "[2]; March 2008", "value": "tumors had shrunk in half"},
      {"measurement": "scan", "setting": "[2]; March of 2009", "value": "tumors were stable"},
      {"measurement": "CT scan", "setting": "[2]; person, 4.5 mg plus chemotherapy, September 2007", "value": "tumors shrunk in half"},
      {"measurement": "Liver enzymes", "setting": "[3]; person three", "value": "dropped to normal"},
      {"measurement": "ultrasound of liver", "setting": "[3]; person three", "value": "No fatty liver"},
      {"measurement": "HCV viral load", "setting": "[3]; person three, from over a million in January 2009, May 2009", "value": "49,000"},
      {"measurement": "use of other medication", "setting": "[3]; person, Hepatitis C and Diabetes, 4 mg once a day in the morning", "value": "no longer takes prednisone or other immunosupression drugs"},
      {"measurement": "Viral load", "setting": "[3]; person, stage 4 cirrhosis, 4.5 mg from March of 2011, from 24.4 million, by May of 2011", "value": 11.9, "unit": "million"},
      {"measurement": "CDAI scores", "setting": "[4]; 4.5 mg/day by mouth each evening, 12 weeks, baseline 356+/−27, P=0.01", "value": "decreased significantly"},
      {"measurement": "patients who achieved a remission", "setting": "[4]; P<0.001", "value": 67, "unit": "%"},
      {"measurement": "laboratory abnormalities", "setting": "[4]; human, in vivo", "value": "No laboratory abnormalities"},
      {"measurement": "quality of life surveys (IBDQ, SF-36) vs baseline", "setting": "[4]; human, in vivo", "value": "Improvement"},
      {"measurement": "use of pain tablets", "setting": "[5]; person, 4.5 mg, within 3 days", "value": "cut down the number of pills in half"},
      {"measurement": "use of pain medication", "setting": "[5]; within 8 weeks", "value": "stopped all pain medication"},
      {"measurement": "reduction of baseline pain", "setting": "[6]; 4.5 mg oral daily, placebo 18.0%, P=0.016", "value": 28.8, "unit": "%"},
      {"measurement": "mood", "setting": "[6]; P=0.039", "value": "improved"},
      {"measurement": "general satisfaction with life", "setting": "[6]; P=0.045", "value": "improved"},
      {"measurement": "fatigue or sleep", "setting": "[6]; in vivo", "value": "not improved"},
      {"measurement": "serious side effects", "setting": "[6]; in vivo", "value": "no serious side effects"},
      {"measurement": "tolerability", "setting": "[6]; in vivo", "value": "equally tolerable as placebo"},
      {"measurement": "side effect", "setting": "[7]; person one", "value": "strange dreams"},
      {"measurement": "Latest lab work", "setting": "[7]; person, 1.5 mg", "value": "normal in all areas"},
      {"measurement": "use of other medication", "setting": "[7]; person, 1.5 mg", "value": "able to go off the Advair, Nasacort, and Albuterol"},
      {"measurement": "TPO levels", "setting": "[7]; person, 4.5 mg with T3/T4, from 350", "value": "returned to normal"},
      {"measurement": "TgAb", "setting": "[7]; person, 4.5 mg, lowered from 77", "value": "< 1"},
      {"measurement": "TPO", "setting": "[7]; person, lowered from 229", "value": 203},
      {"measurement": "attacks after resuming treatment", "setting": "[8]", "value": "no attacks since"},
      {"measurement": "time to return of symptoms after running out of drug", "setting": "[8]", "value": "≤ 72", "unit": "h"},
      {"measurement": "serious adverse events", "setting": "[9]; human, in vivo", "value": "did not occur"},
      {"measurement": "tolerability", "setting": "[9]; human, in vivo", "value": "well tolerated"},
      {"measurement": "improvement on the Mental Health Inventory", "setting": "[9]; p<0.01", "value": 6, "unit": "point"},
      {"measurement": "improvement on the Pain Effects Scale", "setting": "[9]; p=0.04", "value": 1.6, "unit": "point"},
      {"measurement": "improvement on the Perceived Deficits Questionnaire", "setting": "[9]; p=0.05", "value": 2.4, "unit": "point"},
      {"measurement": "overall improvement in FIQR", "setting": "[10]; 4.5 mg, at Month 3, 22 patients completing", "value": 19.5, "unit": "%"},
      {"measurement": "average improvement in FIQR", "setting": "[10]; Eleven patients (50%)", "value": 41, "unit": "%"},
      {"measurement": "pain level decreased", "setting": "[11]", "value": 90, "unit": "%"},
      {"measurement": "improvement in CD4 count vs control group", "setting": "[12]; at 6 months (p=0.041)", "value": "significantly greater"},
      {"measurement": "improvement in CD4 count vs control group", "setting": "[12]; at 9 months (p=0.067)", "value": "marginally"},
      {"measurement": "Improvement in CD4%", "setting": "[12]; throughout treatment", "value": "not statistically significant"},
      {"measurement": "duration of comparatively stable disease", "setting": "[13]; 4.5 mg at bedtime with IV and oral ALA, selenium, silymarin, diet", "value": "> 3", "unit": "year"},
      {"measurement": "quality of life", "setting": "[13]; same regimen", "value": "improved"},
      {"measurement": "expression of CDK Inhibitors p15, p18, p19, and p27", "setting": "[14]", "value": "not altered"},
      {"measurement": "effect on A549 (lung) and HCT116 (CRC)", "setting": "[15]", "value": "no effect"}
    ]}
  ]
}
